Reference: PubChem BioAssay AID1345083 (National Center for Advancing Translational Sciences (NCATS), 2018)
Out of some 94,000 compounds screened, about 6,200 (6.6%) were called active. Inconclusive means that the source gave no clear call. Such entries were picked first, then a sample of the others. Calls come from the whole dose curve; as a rule, active = well fitted inhibition curve with a large enough effect; inconclusive = small, poorly fitted or top-dose-only effect; inactive = flat fitted curve, though single readings scatter. A potency beside an inconclusive call is a rough fit, not a confirmed value.

Test: Cytotoxic Profiling in HEK 293 Cell Line of Diverse Libraries Using Quantitative High-Throughput Screening; note: nearly all actives have a fitted effect of over 60% in size
Details: HEK 293 viability, ATP luminescence (CellTiter-Glo), 48-72 h; series mostly up to 115 µM
Outline: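 Viability of HEK 293 cells, plated at 250 cells/well, was judged by cellular ATP after compound treatment for 48 or 72 hr. Luminescence was imaged 10 min after CellTiter-Glo addition at room temperature.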
Potency is the fitted concentration of half-maximal effect; tags give direction and shape of the fitted curve.

Row | SMILES | Potency
1 | O=C1COCC2(CN(CCC(F)(F)F)C2)CN1Cc1cccc(OC(F)(F)F)c1 | inconclusive: 100 µM [inhibitor, partial curve]
2 | O=C(NCCc1ccc(Cl)cc1)c1ccc2nnc(-c3cccc(C(F)(F)F)c3)n2c1 | inconclusive: 50.1 µM [inhibitor, partial curve, poor fit]
3 | CCN1c2cc(C(=O)NCc3cccs3)ccc2C(=O)N2CCCCCC21 (centres undefined) | inconclusive: 35.5 µM [inhibitor, partial curve, poor fit]
4 | COc1ccc(C2Cn3nnc(-c4noc(COc5ccc(F)cc5)n4)c3CO2)cc1 (centres undefined) | inconclusive: 44.7 µM [inhibitor, partial curve, poor fit]
5 | Cc1ccc(NC(=O)CN2C(=O)NC(c3ccc(Cl)cc3)C3=C2COC3=O)c(C)c1 (centres undefined) | inconclusive: 39.8 µM [inhibitor, full curve]
6 | Cn1cc(CN2CCNc3cc(Nc4cccnc4)ncc3C2)cn1 | inconclusive: 79.4 µM [inhibitor, partial curve]
7 | CC(C)c1ccc(N2C(=O)N[C@@H]3CCN(C(=O)c4ccc(N(C)C)cc4)[C@@H]3C2=O)cc1 | inactive
8 | O=C(NCCc1ccccc1)c1cnc2c(c1)N(C(=O)Cc1cccc(C(F)(F)F)c1)CCC2 | inconclusive: 79.4 µM [inhibitor, single point]
9 | Cc1ccc(C2NC(=O)N(CC(=O)NCc3ccccc3Cl)C3=C2C(=O)OC3)cc1 (centres undefined) | inconclusive: 28.2 µM [inhibitor, full curve]
10 | O=C(NCC1CC1)C1CCCN(C2CCN(Cc3ccncc3)CC2)C1 (centres undefined) | inactive
11 | COc1ccc(Nc2ccnc(N3CCC(NC(=O)c4ccc(C(F)(F)F)cc4)CC3)n2)cc1 | inconclusive: 8.91 µM [inhibitor, full curve, poor fit]
12 | O=C(Nc1ccc2c(c1)OCCO2)N1CCC(CCc2nc(C3CCOCC3)no2)CC1 | inconclusive: 50.1 µM [inhibitor, partial curve, poor fit]
13 | COc1ccc(-c2cc(N3CCN(C(=O)c4cccc(C)c4)CC3)n[nH]2)cc1 | inconclusive: 56.2 µM [inhibitor, partial curve, poor fit]
14 | COc1ccc(CNC(=O)c2cc(-c3ccccc3F)nc3c2cnn3C)cc1 | inconclusive: 50.1 µM [inhibitor, partial curve]
15 | COCCN1Cc2ccc(NCC(C)C)nc2C(C)(C(=O)Nc2cccc(F)c2)C1 (centres undefined) | active: 44.7 µM
16 | COCc1nnc(C2CC3(CCN(C(=O)c4ccc(OC)nc4)CC3)CN2C)o1 (centres undefined) | inactive
17 | COCCn1c2c(c(=O)n1-c1ccccc1)CCN(C(=O)c1nc3ccccc3[nH]1)C2 | inactive
18 | COc1ccc(F)cc1CN1CCC(CO)(CN2CCCC2)CC1 | inconclusive: 89.1 µM [inhibitor, single point]
19 | COC[C@H]1CCCN1C(=O)CC[C@H]1CNC(=O)[C@@H]2[C@@H](CCN2CC2CC2)N1C | inactive
20 | N#Cc1ccc(CN2CCC23Cc2ccccc2NC3=O)cc1 (centres undefined) | inconclusive: 126 µM [inhibitor, partial curve, poor fit]
21 | O=C1c2c(nc(COc3ccccc3)n2Cc2ccccc2)NCCN1Cc1ccccc1 | active: 35.5 µM
22 | COc1ccccc1CC(=O)N1CCCc2ncc(C(=O)Nc3ccccc3C)cc21 | inconclusive: 112 µM [inhibitor, partial curve, poor fit]

Row | SMILES | Potency
23 | C=CCOc1c(OC)ccc2c1CN(C1CCCC1)C(=O)CCN2CC(O)COc1ccccc1 (centres undefined) | inconclusive: 50.1 µM [inhibitor, partial curve, poor fit]
24 | Cc1cccc(OCC(=O)N2CCC(n3cc(-c4nc(C(C)C)no4)nn3)C2)c1 (centres undefined) | inactive
25 | Cc1nc2cccnc2n1CC1CCCN(S(=O)(=O)c2ccc(F)c(F)c2)C1 (centres undefined) | inconclusive: 100 µM [inhibitor, single point]
26 | O=C(c1ccccc1)N1CCC2(CC1)C(=O)NN=C2c1ccccn1 | inconclusive: 112 µM [inhibitor, partial curve, poor fit]
27 | COCCCn1c(=O)c(C(=O)N2CCN(C(=O)c3ccc(Cl)nc3)CC2)nc2cccnc21 | inactive
28 | Cc1cc(C)n(Cc2c(C(=O)NCC3Cn4cccc4C(=O)N3C)noc2C)n1 (centres undefined) | inactive
29 | CN1c2cc(C(=O)NCc3cccs3)ccc2C(=O)N2CCCCC21 (centres undefined) | inconclusive: 35.5 µM [inhibitor, partial curve]
30 | O=C(C1CCCN1C(=O)C1CC1)N1CCC(c2nc3ccncc3[nH]2)C1 (centres undefined) | inactive
31 | COc1cccc(CN2C[C@@H](COCC3CC3)[C@H](c3ccncc3)C2)n1 | inconclusive: 89.1 µM [inhibitor, single point]
32 | COc1ccc(-c2nc3c(c(=O)[nH]2)CCN(C(=O)Nc2ccc4c(c2)CCC4)C3)cc1 | inconclusive: 31.6 µM [inhibitor, full curve, poor fit]
33 | Cc1nc(-c2ccc(F)cc2)n(Cc2ccc(F)c(F)c2)c(=O)c1CCO | inconclusive: 50.1 µM [inhibitor, partial curve, poor fit]
34 | Cc1ccc(CN2CCC(N3C(=O)c4c(c(C)nn4-c4ccccc4)C3C3CC3)CC2)cc1 (centres undefined) | inactive
35 | O=C(Nc1ccccc1)c1nc2c(o1)CCN(Cc1cccc(Cl)c1)CC2 | inconclusive: 35.5 µM [inhibitor, full curve]
36 | Cc1ncc2n1C(=O)N(C1CCN(Cc3ccsc3)CC1)C2 | inconclusive: 112 µM [inhibitor, partial curve, poor fit]
37 | Cc1ccc(C(=O)N[C@H]2CO[C@H]3[C@@H]2OC[C@@H]3n2cc(CC3CCCCC3)nn2)cc1 | inconclusive: 100 µM [inhibitor, partial curve]
38 | CC(C)C(=O)N1Cc2ccccc2CC2(CCCN(C)C2)C1 (centres undefined) | inconclusive: 89.1 µM [inhibitor, partial curve]
39 | CN1C(=O)C2(CCN(C(=O)C3CCCC3)CC2)c2ccccc21 | inconclusive: 3.55 µM [inhibitor, single point]
40 | CCC1Oc2ccc(NC(=O)c3ccc(Cl)cc3)cc2CN(Cc2ccc3c(c2)OCO3)C1=O (centres undefined) | inconclusive: 50.1 µM [inhibitor, partial curve, poor fit]
41 | COC(=O)CNC(=O)c1nc(-c2c(C)cccc2C)c2ccccn12 | inconclusive: 39.8 µM [inhibitor, full curve, poor fit]
42 | COCCNc1ncnc2c1CCN(C(=O)CCc1n[nH]c(C)n1)CC2 | inactive
43 | C=CCN1Cc2cc(F)ccc2N(CC(O)Cc2ccccc2)CCC1=O (centres undefined) | inconclusive: 79.4 µM [inhibitor, single point]
44 | Cc1ccsc1CN(Cc1ccc(CN(C)S(C)(=O)=O)o1)CC(C)C | inconclusive: 50.1 µM [inhibitor, partial curve, poor fit]

Row | SMILES | Potency
45 | Cc1cnc(C(=O)N[C@@H]2CCC[C@@H]2C(=O)Nc2ccc(C)c(F)c2)cn1 | inactive
46 | CN1CCN(c2ccc(-c3nccc4c(=O)cc(N5CCOCC5)oc34)cn2)CC1 | inactive
47 | COCCCNC(=O)N1CCCN(Cc2ccncc2)C(c2ccccc2)CC(=O)NCC1 (centres undefined) | inactive
48 | COC(=O)[C@@H]1Cc2c([nH]c3ccccc23)[C@@H]2C[C@@H](NCCNC(C)=O)C[C@@H](c3cccc(Cl)c3)N12 | active: 31.6 µM
49 | Cn1ccc2c(C(=O)NCCC(N)=O)nc(-c3ccccc3C(F)(F)F)cc21 | inconclusive: 70.8 µM [inhibitor, partial curve]
50 | CCN1C(=O)C2CC3(CCN(C(=O)c4ccc(Cn5cncn5)o4)CC3)CN2C1=O (centres undefined) | inactive
51 | COc1ccc(C(=O)N2CCCC(c3nc(-c4ccccc4)no3)CCNC(=O)CC2)c(OC)c1 (centres undefined) | inconclusive: 89.1 µM [inhibitor, single point]
52 | CC(CCc1ccco1)NC(=O)CN1CCCc2nc(-c3ccccc3)ncc2C1=O (centres undefined) | inconclusive: 50.1 µM [inhibitor, partial curve, poor fit]
53 | Cc1c(Cl)cccc1NC(=O)NCC1CCOCC1 | inactive
54 | COCc1ccc2c(c1)c(OC(C)(C)C(=O)Nc1ccn(C)n1)nn2Cc1cccnc1 | inactive
55 | CCc1ccc(N2CC(c3noc(-c4ccc(OC)cc4OC)n3)CC2=O)cc1 (centres undefined) | inconclusive: 12.6 µM [inhibitor, full curve, poor fit]
56 | CC(=O)c1ccc(NC(=O)c2cc3c(n2C)CCN(Cc2ccccc2)C3)cc1 | inconclusive: 79.4 µM [inhibitor, partial curve, poor fit]
57 | Cc1ccc(CN2CCC(N3CCCNC3=O)CC2)cc1 | inactive
58 | O=C(c1ccc(F)cc1)N1C[C@@H]2C[C@H](C1)c1c(NS(=O)(=O)c3cccc(F)c3)ccc(=O)n1C2 | inactive
59 | COc1ccccc1-c1cnc(Nc2cc(F)cc(N3CCOCC3)c2)c2c1CCO2 | inconclusive: 35.5 µM [inhibitor, full curve, poor fit]
60 | CN(C)c1ccc(CN2CCCC3(CC(c4cccc(C(F)(F)F)c4)=NO3)C2)cc1 (centres undefined) | inconclusive: 89.1 µM [inhibitor, single point]
61 | COc1ccc(C(=O)NC2CCN(C(=O)c3ccc(-c4ncccc4C#N)cc3)CC2)cc1 | inconclusive: 89.1 µM [inhibitor, partial curve, poor fit]
62 | COc1ccccc1CN1CCC(CN(CC(C)C)C(=O)C2CCCN2)CC1 (centres undefined) | inconclusive: 56.2 µM [inhibitor, partial curve, poor fit]
63 | O=C(NCCC1CCN(C(=O)Nc2ccc(F)cc2)CC1)c1ccco1 | inactive
64 | CCOC(=O)CN1C(=O)CCN(C(=O)c2ccc(F)cc2)CC(OC)c2ccccc21 (centres undefined) | inconclusive: 35.5 µM [inhibitor, partial curve, poor fit]
